In the supplement of paper PMC11417369:
± gives the standard deviation of the averaged measurements. Some of the results follow.

Each sequence was assayed on PfAP2-I AP2 domain 3 (GST-tagged) (assay: gcPBM binding intensity (ln(normalized median fluorescence intensity)); higher = stronger DNA binding).
In short: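 The highest Masliner-normalised natural-log median intensity across replicate spots of either probe orientation is reported as binding intensity. GST-tagged P. falciparum DNA-binding domains expressed in E. coli were applied for 1 h to an Agilent 4 × 180k array of primer-extended double-stranded 36-bp intergenic genomic probes plus negative controls, and bound protein was detected with Alexa488 anti-GST antibody and scanned at 488 nm.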

Sequence | gcPBM binding intensity (ln)
AAAAACGATTAATGTGTACACACATAGTTATAAACA [CACACA_site8659] | 7.89 ± 0.54
TTTTTTTTTTTTTAATGTACAAATATGGTGACAAAA [XGTACX_site8709] | 8.19 ± 0.46
ATATATATATATATATGTACATATATTTTCTTTTTG [XGTACX_site6017] | 9.44 ± 0.61
TTGTTCTATAATTATACATGCATTAACAGAGTAAAA [TGCATGCA_site909] | 8.59 ± 0.56
AGGATAACATACAAAAGTACATAAAACTAAAAAAAC [XGTACX_site26] | 8 ± 0.57
TTTATTAAACTTGACACACACACACCCACATATATA [CACACA_site760] | 8.305 ± 0.078
ATATTATATAGAAACACACATACACATGTAAATATA [CACACA_site2037] | 7.75 ± 0.67
ATCTTATATTATCACACACACACGCACAAAACAGAA [CACACA_site1463] | 8.64 ± 0.4
ATATAGAAAATGCATACACACTTTATATATATATTT [CACACA_site4658] | 7.68 ± 0.6
TAATTATTTCGTATATTTGAATGGTACATGCTTATA [CACACA_negctrl_site1178] | 7.61 ± 0.26
ATGGATTTTACCATAGCACACATATATGAATATTTT [CACACA_site8535] | 7.96 ± 0.54
AATGTGCTCGCTATTACACACTCATTGGGATAAAAT [CACACA_site8627] | 7.99 ± 0.59
AGTAACAATTATTATGCATGTACAAATAATCATTTT [TGCATGCA_site867] | 7.86 ± 0.57
AAAATTCAGCGAAAGGGTACATATGTGTAAGGGTAA [XGTACX_site8205] | 8.59 ± 0.77
TATATTTATATACCAACACACATACATATTTATATA [CACACA_site6931] | 7.58 ± 0.42
CTATTATATCAGTAGACACACATATAACATTTATAT [CACACA_site141] | 8.01 ± 0.3
ATATAAAAAAAAAAAAAAAAATATATATATATATAT [GTGCAC_negctrl_site251] | 9.47 ± 0.29
TTGGTTTGAAAGAAAGAAATTATTAAAAAGGAAATA [CACACA_negctrl_site26] | 7.67 ± 0.54
GATATACTGTCAATTCTACACACCATAGGGGGAGCA [CACACA_site8562] | 9.2 ± 0.13
TACTGATCCACATTTATACACACCTCGGTTTGTAGA [CACACA_site417] | 7.75 ± 0.49
ATATATATATATACAACACACATGTAATATATAAAT [CACACA_site3294] | 9.34 ± 0.28
TATAGATTCTTTTAATGTACATGTCTTTTCATTTCC [XGTACX_site8348] | 7.74 ± 0.69

Sequence | gcPBM binding intensity (ln)
TTTTTAAATATATAATAGAATTGATTGTATTATATA [CACACA_negctrl_site196] | 7.3 ± 0.25
GTATGAAAAAAAATATGTACACATATATATTTGGTA [XGTACX_site6309] | 7.75 ± 0.53
TTGTGTTCTTATTTTTACACCGAAAAATATTAAAAG [CACACA_negctrl_site535] | 8.14 ± 0.35
CCTTTATACATTTTCTGTACTGATATATATTAAAAA [XGTACX_site8467] | 8.1 ± 0.33
TTGTTTTTTTCTTTTTGTACATATACAACATACATA [XGTACX_site8996] | 8.04 ± 0.6
CATACACCCGGACACACACACACACCCATATATAAT [CACACA_site4494] | 8.21 ± 0.43
GAAAATATATTATTTACACACATGTTCAAATTAAAA [CACACA_site3761] | 7.73 ± 0.59
AAACAATTTATGTGTAGTACATGTTGGAGATAATTT [XGTACX_site6000] | 8.02 ± 0.51
TATTAAATATAAGTCACACATAATTTTTCGTCCTTT [CACACA_site5065] | 7.57 ± 0.64
GTTATACGCATATATACACACATATGTAAATATATA [CACACA_site3280] | 8 ± 0.33
CTTTTTATTAAATATGCATGTGTATCAACAGTGAAT [TGCATGCA_site447] | 8.06 ± 0.88
TAAAAAAAATAGCATACACACATATATACCTATATA [CACACA_site4535] | 7.33 ± 0.4
ATCATAACACCTCCACACAAATAAATATAACATATA [XGTACX_negctrl_site269] | 8.09 ± 0.45
ATGAGTGCACAAATATATATATATATATATATATAT [CACACA_negctrl_site404] | 11 ± 0.56
TTCTATGAATTCATAGTGCAAATGAGTTATTTTTTC [GTGCAC_site9709] | 9.9 ± 0.33
TTATTATTGTTATGTTGTACTTTTACAAACTTTTTG [XGTACX_site8797] | 7.87 ± 0.51
AAGAAAATAGGGTTCATAGGATTATACTTTTGGAAT [TGCATGCA_negctrl_site80] | 7.59 ± 0.57
AACGAGCAAGACGGGGTGCACACAAACTAATATGCC [GTGCAC_site9436] | 10.8 ± 0.37
TAATAAAAGATATATACACACAAATAAATAAATAAA [CACACA_site7818] | 7.79 ± 0.95
AAATATAAAAAAAATATATAATTTTTACATCGAATT [CACACA_negctrl_site544] | 7.27 ± 0.65
ATAATATAAACATATTGTACACATATATTGCTATTT [XGTACX_site2799] | 7.83 ± 0.52
AAAAAAAAATATATATATATATATATAAATAAATTT [CACACA_negctrl_site519] | 7.8 ± 0.57
